Test results from publication PMC8955265 (2022).

Tests used:
Experiment in all cases: FP; competition
[1] = biological target: ARID4B bisphosphorylated phosphodegron peptide (human, UniProt Q4LE39, bisphosphorylated (the two phosphorylatable residues of the degron are aa1022 and 1026))
[2] = biological target: JAZF1 bisphosphorylated phosphodegron peptide (human, UniProt Q86VZ6, bisphosphorylated (the two phosphorylatable residues of the degron are aa109 and 113))
[3] = biological target: ETV5 bisphosphorylated phosphodegron peptide (human, UniProt P41161, bisphosphorylated (the two phosphorylatable residues of the degron are aa135 and 139))
[4] = biological target: KAT6B bisphosphorylated phosphodegron peptide (human, UniProt Q8WYB5, bisphosphorylated)
[5] = biological target: CCAR2 phosphodegron peptide (P + 4 nonphospho class) (human)
[6] = biological target: ZMIZ1 bisphosphorylated phosphodegron peptide (human, UniProt Q9ULJ6, bisphosphorylated (the two phosphorylatable residues of the degron are aa517 and 521))
[7] = biological target: KLF4 bisphosphorylated phosphodegron peptide (human, UniProt O43474, bisphosphorylated (the two phosphorylatable residues of the degron are aa394 and 398))

B1: Skp1-FBXW7 complex (complex)
chain 1: [sequence of about 150 residues omitted]
chain 2: TQVKHMMQVIEPQFQRDFISLLPKELALYVLSFLEPKDLLQAAQTCRYWRILAEDNLLWREKCKEEGIDEPLHIKRRKVIKPGFIHSPWKSAYIRQHRIDTNWRRGELKSPKVLKGHDDHVITCLQFCGNRIVSGSDDNTLKVWSAVTGKCLRTLVGHTGGVWSSQMRDNIIISGSTDRTLKVWNAETGECIHTLYGHTSTVRCMHLHEKRVVSGSRDATLRVWDIETGQCLHVLMGHVAAVRCVQYDGRRVVSGAYDFMVKVWDPETETCLHTLQGHTNRVYSLQFDGIHVVSGSLDTSIRVWDVETGNCIHTLTGHQSLTSGMELKDNILVSGNADSTVKIWDIKTGQCLQTLQGPNKHQSAVTCLQFNKNFVITSSDDGTVKLWDLKTGEFIRNLVTLESGGSGGVVWRIRASNTKLVCAVGSRNGTEETKLLVLDFDVDMK
Kd [1]: 17.7 nM
Kd [2]: 29.7 nM
Kd [3]: 16.1 nM
Kd [4]: 2.8 nM
Kd [5]: 2190 nM
Kd [6]: 52.3 nM
Kd [7]: 11 nM
